Test results from PubChem BioAssay AID1508623 (National Center for Advancing Translational Sciences (NCATS), 2021).
The whole screen tested about 48,000 compounds, of which about 450 (0.94%) were called active. About 19% were inconclusive and are not listed. Calls come from the whole dose curve; as a rule, active = well fitted inhibition curve with a large enough effect; inconclusive = small, poorly fitted or top-dose-only effect; inactive = no such curve, though single readings can be large or run the other way. Some of the results follow.

Assay: Primary qHTS for Identification of Small Molecule Inhibitors of Huntingtin Promoter Activity; note: nearly all actives have a fitted effect of over 50% in size
Conditions: HEK293 HTT promoter firefly luciferase reporter (activity 0% = vehicle and -100% = no light), 24 h; series mostly up to 57.5 µM; activity change, negative = inhibition: at the top concentration
Procedure, shortened: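 HEK293 Fluc reporter, 2,500 cells/well, 24 h pre-culture; cpds up to 57.5 uM final, 24 h 37 degrees C; Dual-Glo, 10 min RT; normalized vehicle = 0%, zero RLU = -100%.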

Activity change, negative = inhibition, inactive:
COc1ccc(CCN2C(=O)CN(C3CCC(C)CC3)C(=O)C2c2ccc(OC(C)C)c(OC)c2)cc1OC (stereo not drawn) -29.1%, Cc1ccccc1C(=O)c1cccn1CC(=O)NCc1cccc(Cl)c1 26.4%, CCc1nn(CCCC(=O)NC(C)c2ccccc2)c(=O)c2cc3occc3n12 (stereo not drawn) -11%, Cn1c(SCc2ccccc2F)nc2c([nH]c3ccccc32)c1=O 2.62%, CCCCNC(=O)C(CC)Sc1nc2ccccc2c(=O)n1CCc1ccc(OC)c(OC)c1 (stereo not drawn) -10.8%, CCc1ccc(NC(=O)Cn2c(-c3cncs3)nc3ccccc32)cc1 -3.38%, CCn1c2ccccc2c2cc(CN3CCN(Cc4ccccc4C)CC3)ccc21 -17.9%, COc1ccccc1C(=O)Nc1ccc(OCc2cc(=O)n3cc(C)sc3n2)cc1 -13.4%, COc1ccc(C)cc1NC(=O)c1ccc2c(c1)nnn2C1CCCC1 -35.5%, Cc1ccc2[nH]c(=O)c3cc(C(=O)NCCc4ccc(Cl)cc4)sc3c2c1 -3.72%, c1ccc(OCCn2c(COc3ccccc3)nc3ccccc32)cc1 -8.56%, O=C1c2oc3ccccc3c(=O)c2C(c2cccc(Cl)c2)N1c1ccccn1 (stereo not drawn) -8.17%, O=C(Cn1c(=O)c2cccn2c2cccnc21)NCc1ccccc1F -1.69%, CC1=C(C(=O)Nc2ccc(C)cc2C)C(c2ccccc2F)n2nc(SCC(=O)c3ccc(C)cc3)nc2N1 (stereo not drawn) -13.5%, Cc1cc2nc(-c3ccc(OCc4ccccc4)cc3)cc(C(F)(F)F)n2n1 -4.5%, Cc1cc(-n2c(C)nc3ccccc3c2=O)ccc1NC(=O)c1ccc([N+](=O)[O-])cc1 -17.7%, O=C(Nc1ccc(S(=O)(=O)N2CCCCCC2)cc1)c1cc(=O)c2ccccc2o1 -27.4%, CC(=O)c1ccc(N2CCN(C(=O)CCS(=O)(=O)c3ccc4c(c3)oc(=O)n4C)CC2)cc1 9.42% [at 11.5 µM], CCOc1ccc(NS(=O)(=O)c2ccc3[nH]cc(C(=O)NCC4CCCO4)c(=O)c3c2)cc1 (stereo not drawn) 17%, Nc1c(-c2nc(-c3ccc(F)cc3)cs2)c2ccccn2c1C(=O)c1ccc2c(c1)OCO2 -9.7%, CCOc1ccc(N2CC(C(=O)NCc3nnnn3-c3ccc(C)c(C)c3)CC2=O)cc1 (stereo not drawn) 0.0349%, COc1ccc(NCc2cc3ccc(OC)cc3n(CC(=O)Nc3cc(Cl)ccc3C)c2=O)cc1 -4.35%, CCSc1ncc(Cl)c(C(=O)Nc2sc3c(c2C(=O)NC)CCCC3)n1 -8.26%, CC(Oc1ccccc1F)C(=O)Nc1ccc(-c2nc3ccccc3s2)cc1 (stereo not drawn) 24.2%, CCc1cccc(NC(=O)CN(C)S(=O)(=O)c2cccc3cccnc23)c1 -21.5%, Nc1ccc(C(=O)O)c(O)c1 3.5%, CC1CCc2c(sc(NC(=O)c3cc4nc(-c5ccc(Cl)cc5)cc(C(F)(F)F)n4n3)c2C#N)C1 (stereo not drawn) 4.13%, COc1ccc(S(=O)(=O)c2cnc(SCC(=O)Nc3cc(F)ccc3C)[nH]c2=O)cc1Cl -8.86%, CCC1CCCCN1C(=O)c1sc(-n2nc(C)c(Cc3ccccc3)c2C)nc1C (stereo not drawn) 20.9%, COc1cccc(OC(=O)CSc2nnc(-c3ccc4c(c3)OCO4)o2)c1 -13.4%, CCOC(=O)c1c(S(=O)(=O)NCC(=O)NCc2ccccc2)c(C)n(C)c1C 1.77%, Cc1cccc(-c2nc3c4ccccc4nc(NCc4ccc(F)cc4)n3n2)c1 37.1%, CCOC(=O)c1ccc(OC(=O)c2cn(-c3cccc(OC)c3)c(=O)c3ccccc23)cc1 -11.1%, CCc1ccc2c(c1)NC(c1ccc(OC)cc1)=NC(c1ccncc1)=N2 -18.8%, CCOc1ccccc1NC(=O)C(C)N(c1ccccc1)S(C)(=O)=O (stereo not drawn) -6.41%, COc1cc(/C=C/c2nc(C#N)c(N3CCC(C)CC3)o2)cc(OC)c1OC -26.3%, COc1ccccc1OCC(=O)Nc1c(C(=O)c2ccc(F)cc2)oc2ccccc12 -9.36%, O=C(c1ccccc1)c1ccccc1 14.9%, Cc1ccc2c(c1)N(CCCC(=O)NCc1cccc(F)c1)C(=O)CO2 -2.45%, Cc1ncc(CO)c(CN)c1O -2.86%, COc1ccc(NC(=O)C(NC(=O)/C=C\c2ccc3c(c2)OCO3)c2ccccc2)cc1 (stereo not drawn) -11.2%, CCCN(CCC)CCCNC(=O)c1cc2c(=O)[nH]c3ccccc3c2n1C -6%, COc1cccc(-n2c(=O)c3sc4ccccc4c3n(CC(=O)Nc3ccccc3C)c2=O)c1 -12.8%, O=C(CSc1c2c(nc3cc(Cl)ccc13)CCCC2)NCc1ccccc1Cl -32.2%, COc1ccc(C2CC(=O)c3cc(-c4nc(-c5cccc([N+](=O)[O-])c5)cs4)c(=O)n(-c4ccc(OC)cc4)c3C2)cc1 (stereo not drawn) -2.94%, COc1ccc(C2N3CC4(C)CN2CC(c2ccccc2)(C3)C4=O)cc1OC (stereo not drawn) -11.1%, Cc1c(C(=O)Nc2ccc(F)cc2F)sc2nc3n(c(=O)c12)N=C(c1ccccc1)CS3 -24.1%, Cn1nccc1C(=O)NCc1ccc2c(c1)CCN2C(=O)c1ccc(Cl)cc1 -18.8%, CC(Sc1oc(-c2cccs2)nc1S(=O)(=O)c1ccccc1)c1ccccc1 (stereo not drawn) -22.2%, COc1ccc(C(CNC(=O)COc2cc(C)cc(C)c2)N2CCOCC2)cc1 (stereo not drawn) -3.31%, CCc1ccc(NC(=O)c2nn(-c3ccc(OC)cc3)c(=O)c3c2c2ccccc2n3C)cc1 -26.6%, COc1ccc(N2CCN(c3csc4ccccc4c3=O)CC2)cc1 4.61%, CCc1ccc(Oc2c(C(F)(F)F)oc3c(CN4CCCC(C)C4)c(O)ccc3c2=O)cc1 (stereo not drawn) -13.4%, CC(CNC(=O)CCS(=O)(=O)c1cc2c(cc1Cl)NC(=O)CO2)c1ccccc1 (stereo not drawn) 11.1%, CCOC(=O)c1ccccc1NC(=O)CCc1nc(-c2ccc(C)cc2)no1 -5.58%, CCc1ccccc1NC(=O)C1CCCN(c2cnccn2)C1 (stereo not drawn) -10.6%, C=C(C)C(=O)OCC(O)CO (stereo not drawn) 10.7%, CCOc1nc2cccc(C(=O)O)c2n1Cc1ccc(-c2ccccc2-c2nn[nH]n2)cc1 1.25%, NC(=O)NN=Cc1ccc([N+](=O)[O-])o1 3.43%, Cc1ccc(NC(=O)CSc2nc(=O)cc(N)n2CCc2ccccc2)cc1 3.67%, O=C(Nc1cccc(NC(=O)c2ccccc2Cl)c1)c1cccc(Br)c1 -28.9%, O=C(CCn1cnc2onc(-c3ccc(F)cc3)c2c1=O)N1CCN(c2cccc(Cl)c2)CC1 -16.4%, O=C(Nc1ccccc1C(F)(F)F)N1CCN(c2ccc3nnc(-c4ccc(F)cc4)n3n2)CC1 -31.2%, CCC(C(=O)NCCCN(CC)CC)n1ncn2c(cc3occc32)c1=O (stereo not drawn) -15.8%, CCOc1ccc(CNC(=O)C2Cc3cc(S(=O)(=O)N4CCCCCC4)ccc3N2C(C)=O)cc1 (stereo not drawn) -9.62%, Cc1ccc(NC(=O)Cn2c(-c3nonc3N)nc3ccccc32)cc1Cl -1.56%, CCOc1ccc(OCC)c(NC(=O)C2CCN(c3cnccn3)CC2)c1 -15.4%, O=C(Nc1nnc(S(=O)(=O)N2CCOCC2)s1)c1ccc(F)cc1 4.94%, O=C(c1ccc(F)cc1F)N1CCC(c2noc(-c3ccc(S(=O)(=O)N4CCCC4)cc3)n2)CC1 -7.32%, CCc1ccc(S(=O)(=O)c2nnn3c2nc(NCc2ccccc2OC)c2cc(Cl)ccc23)cc1 -4.96%, Cc1ccccc1-c1noc(-c2ccccc2OCC(=O)Nc2ccccc2[N+](=O)[O-])n1 -12%, Cn1c(=O)oc2cc(S(=O)(=O)Nc3ccc(O)cc3)ccc21 -19.2%, COc1ccc(C2NC(=O)N(C)C3=C2C(=O)N(c2ccc(C)cc2)C3)cc1 (stereo not drawn) -13.1%, Cc1ccc2oc(=O)n(CCNC(=O)Nc3ccc(C)c(F)c3)c2c1 -6.88%, Cc1ccccc1CSc1nc2cccnc2n1Cc1ccc(C(=O)NCCc2cccs2)cc1 -12%, COc1ccc(Cl)cc1N(C)C(=O)C(=O)Nc1ccc2nc3n(c(=O)c2c1)CCCCC3 -11.1%, Cc1ccc(N2CCN(C(=O)c3noc4c3COc3ccc(C)cc3-4)CC2)c(C)c1 -9.83%, COc1ccc(NC(=O)CSc2nc(-c3ccccc3)nc3c2Cc2c(CO)cnc(C)c2O3)cc1Cl -13.2%, Cc1ccc(C)c(N2CCN(C(=O)C(C)n3c(C)c4cnn(-c5ccccc5)c(=O)c4c3C)CC2)c1 (stereo not drawn) -5.56%, Cc1ccc(CNC(=O)c2c(-c3cccc(Br)c3)noc2C)o1 -17.7%, CC(Nc1ccc(-c2nc(-c3ccccn3)no2)cc1[N+](=O)[O-])c1ccccc1 (stereo not drawn) 20.5%, Cc1ccc(C)c(Cn2nc(C)n3c(cc4cc(C)ccc43)c2=O)c1 35.2%, O=C(CSCc1cnn(-c2ccccc2)c1-n1cccc1)Nc1ccc(F)cc1F -18.4%, CCc1ccc(NC(=O)C(=O)NCC(c2cccnc2)N2CCOCC2)cc1 (stereo not drawn) -28.1%, CCc1ccc(NC(=O)c2cc3c(=O)n(Cc4cccnc4)ccc3nc2C)cc1 -21%, Cc1cccc(C(=O)Nc2cccc(OCc3cc(=O)n4c(C)csc4n3)c2)c1 12.9%, CC(C)c1nn2c(=O)cc(COC(=O)CNC(=O)c3ccccc3)nc2s1 -11.4%, OCCc1ccccc1 9.7%, COc1ccc(-c2noc(CCC(=O)NCc3ccc(OC)cc3OC)n2)cc1 -38.7%, O=C(O)c1ccccc1Nc1cccc(C(F)(F)F)c1 8.1%, CCn1cc(C(=O)N(C)Cc2ccccc2)c(=O)c2cc(S(=O)(=O)N3CCCCCC3)ccc21 -1.9%, Cc1cc(C)cc(OCC(=O)N(Cc2ccc(C)o2)C2CCS(=O)(=O)C2)c1 (stereo not drawn) -13.8%, Cc1ccc(-c2nn3c(=O)cc(CN4CCN(C(=O)Nc5cc(Cl)ccc5C)CC4)nc3s2)cc1 -16.2%, CCC(CC)C(=O)Nc1ccc2nc(SCC(=O)N3c4ccccc4CC3C)sc2c1 (stereo not drawn) -21.9%, Clc1ccc(C(c2ccccc2Cl)C(Cl)Cl)cc1 (stereo not drawn), CCOC(=O)c1c(C)sc(-c2c(-c3ccc(OC)c(F)c3)[nH]c3c2c(=O)[nH]c(=O)n3C)c1O -24.8%, CC(C)Oc1ccc(CNC(=O)c2ccc3nc(Cc4ccccc4)oc3c2)cc1 -29.2%, COc1ccc(Cl)cc1NC(=O)c1c(NCc2ccc(C)o2)sc2c1CCCC2 -4.8%
